The list shows a part of the results. At the low end of the ranking the order means little.
These sequences were tested against GST-SBP-SLBP (stem-loop binding protein) (UniProt Q14493) (assay: targeted RNA Bind-n-Seq). Details: RBNS binding buffer: 25 mM Tris pH 7.5, 150 mM KCl, 3 mM MgCl2, 0.1% Tween, 0.5 mg/mL BSA, 1 mM DTT; 27 nM protein, 750 pM RNA pool; temperature not stated; high values mean tight binding.
“GGUCACGUCUCAAUCAACUCUUCCCCAGGAGUUUCCUCCUGUAUUCUCAACAGCUCGCAGUCAAG” was tested, and the binding signal (log2 fold change) was 0.144. “GGUCACGUCUCAAUCAACUCAUCGGCCAGGGAAAACCCUGGGAAUCUCAACAGCUCGCAGUCAAG” gave a binding signal (log2 fold change) of -0.194. For “GGUCACGUCUCAAUCAACUCUUCUCCAGGAGUUUCCUCCUGCAUUUUCAACAGCUCGCAGUCAAG”, the binding signal (log2 fold change) was -0.0682. With “GGUCACGUCUCAAUCAACUCUCACGAGGGGGGGAAAACCCCUUUACCCUCAUUUUCAACAGCUCGCAGUCAAG” the binding signal (log2 fold change) was 0.246. Work on “GGUCACGUCUCAAUCAACUCUUUUCCAGGAGUUUUCUCCUGUUAUGUCAACAGCUCGCAGUCAAG” yielded a binding signal (log2 fold change) of 0.00957. “GGUCACGUCUCAAUCAACUCUUCCUCCAGGGAAAGCCCUGGCUUUUUCAACAGCUCGCAGUCAAG” showed a binding signal (log2 fold change) of 0.0355. “GGUCACGUCUCAAUCAACUCUAUUUCAGGAGUUUUCUCCUGCAUUUUCAACAGCUCGCAGUCAAG” was tested, and the binding signal (log2 fold change) was -0.0466. “GGUCACGUCUCAAUCAACUCUCCAGAGGGGGGGAAAACCCCUUUGCCCUCCAAAUCAACAGCUCGCAGUCAAG” was tested, and the binding signal (log2 fold change) was 0.296. “GGUCACGUCUCAAUCAACUCUAGUCCAGGAGUUUACUCCUGUUUAUUCAACAGCUCGCAGUCAAG” gave a binding signal (log2 fold change) of 0.313. For “GGUCACGUCUCAAUCAACUCAUUCUCAGGAGUUUACUCCUGCUUUGUCAACAGCUCGCAGUCAAG”, the binding signal (log2 fold change) was 0.0546. With “GGUCACGUCUCAAUCAACUCAUCCUCCAGGGAAAGCCCUGGCUUACUCAACAGCUCGCAGUCAAG” the binding signal (log2 fold change) was -0.151. Work on “GGUCACGUCUCAAUCAACUCUUUUUCCAGGGAAACCCCUGGCUAAUUCAACAGCUCGCAGUCAAG” yielded a binding signal (log2 fold change) of -0.0162. Work on “GGUCACGUCUCAAUCAACUCAUCGCCAGGAGUUUCCUCCUGUUUACUCAACAGCUCGCAGUCAAG” yielded a binding signal (log2 fold change) of 0.238. Sequence “GGUCACGUCUCAAUCAACUCUUUCCCCAGGGAAAACCCUGGCAAACUCAACAGCUCGCAGUCAAG” has a binding signal (log2 fold change) of -0.0981. Sequence “GGUCACGUCUCAAUCAACUCAAUCUCCAGGGAAAACCCUGGCUAUCUCAACAGCUCGCAGUCAAG” has a binding signal (log2 fold change) of -0.135. For “GGUCACGUCUCAAUCAACUCUAUGGCAGGAGUUUACUCCUGGAAAUUCAACAGCUCGCAGUCAAG”, the binding signal (log2 fold change) was 0.0366. “GGUCACGUCUCAAUCAACUCAUUUUCAGGAGUUUGCUCCUGUAAUUUCAACAGCUCGCAGUCAAG” showed a binding signal (log2 fold change) of 0.249. “GGUCACGUCUCAAUCAACUCUAUCCCCAGGGAAAUCCCUGGUUAAUUCAACAGCUCGCAGUCAAG” showed a binding signal (log2 fold change) of -0.163. With “GGUCACGUCUCAAUCAACUCAAUUCCAGGAGUUUACUCCUGUUAAUUCAACAGCUCGCAGUCAAG” the binding signal (log2 fold change) was -0.0372. For “GGUCACGUCUCAAUCAACUCUUUCCCCAGGGAAAGCCCUGGCAUAUUCAACAGCUCGCAGUCAAG”, the binding signal (log2 fold change) was -0.0742. Work on “GGUCACGUCUCAAUCAACUCAUUUUCCAGGGAAAGCCCUGGCAGUCUCAACAGCUCGCAGUCAAG” yielded a binding signal (log2 fold change) of -0.188.
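Further: DESeq read counts versus GST-SBP nonspecific binding control pulldown.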
